In all, about 310,000 compounds went through this assay and about 2,200 (0.71%) showed an effect of 50% or more. Effects have a minus sign here. Some of the results follow.

The target in the test is human ether-à-go-go-related gene (hERG) potassium channel (human, UniProt Q12809). The experiment in a line: primary screen, population patch clamp on CHO cells stably expressing hERG.
Chain of human ether-à-go-go-related gene (hERG) potassium channel (Q12809 whole entry, looked up): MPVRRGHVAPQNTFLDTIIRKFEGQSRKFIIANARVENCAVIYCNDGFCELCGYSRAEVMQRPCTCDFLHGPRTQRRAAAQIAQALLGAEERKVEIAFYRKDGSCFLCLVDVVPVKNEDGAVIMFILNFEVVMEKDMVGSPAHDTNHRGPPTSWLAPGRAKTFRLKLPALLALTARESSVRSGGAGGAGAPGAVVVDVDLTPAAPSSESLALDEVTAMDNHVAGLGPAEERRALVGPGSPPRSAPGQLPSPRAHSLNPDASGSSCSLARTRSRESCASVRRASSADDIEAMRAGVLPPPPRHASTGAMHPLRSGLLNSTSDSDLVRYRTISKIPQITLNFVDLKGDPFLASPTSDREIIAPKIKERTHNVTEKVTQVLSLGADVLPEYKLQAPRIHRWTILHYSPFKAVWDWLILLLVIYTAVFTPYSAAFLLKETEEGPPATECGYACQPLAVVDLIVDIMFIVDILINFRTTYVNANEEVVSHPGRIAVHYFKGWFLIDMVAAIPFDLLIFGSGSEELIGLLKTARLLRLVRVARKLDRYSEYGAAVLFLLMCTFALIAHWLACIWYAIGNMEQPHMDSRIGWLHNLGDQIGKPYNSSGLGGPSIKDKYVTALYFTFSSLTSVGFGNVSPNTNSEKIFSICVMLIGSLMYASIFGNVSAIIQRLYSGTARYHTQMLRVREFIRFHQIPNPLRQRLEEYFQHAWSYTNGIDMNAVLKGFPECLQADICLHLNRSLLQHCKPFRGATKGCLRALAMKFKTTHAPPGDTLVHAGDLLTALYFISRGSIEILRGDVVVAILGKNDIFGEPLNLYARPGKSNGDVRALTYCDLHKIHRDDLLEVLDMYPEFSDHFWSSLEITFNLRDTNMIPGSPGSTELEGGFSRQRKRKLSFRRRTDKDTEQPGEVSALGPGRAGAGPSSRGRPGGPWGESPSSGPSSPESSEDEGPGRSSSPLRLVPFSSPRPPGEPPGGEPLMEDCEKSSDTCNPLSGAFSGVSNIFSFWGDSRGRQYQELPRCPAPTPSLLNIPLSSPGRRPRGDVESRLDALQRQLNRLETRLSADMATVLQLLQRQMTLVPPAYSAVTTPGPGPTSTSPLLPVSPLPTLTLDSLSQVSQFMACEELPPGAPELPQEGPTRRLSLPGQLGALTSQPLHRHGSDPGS
In the case of `COc1ccc(S(=O)(=O)N2CCOC2CNC(=O)C(=O)NCc2ccc3c(c2)OCO3)cc1OC` (centres unmarked), the “hERG current change (%, negative = inhibition) at 1uM” value is listed as 14%.
In the case of `O=C1CC(C(=O)NC2CCCCC2)C2(CCCCC2)O1` (centres unmarked), the “hERG current change (%, negative = inhibition) at 1uM” value is reported as 2.41%.
In the case of `O=S1(=O)CC(N2CCCCC2)C(N2CCCCC2)C1` (centres unmarked), the “hERG current change (%, negative = inhibition) at 1uM” value came out at 8.09%.
The result for `CS(=O)(=O)N(CC(=O)Nc1ccc2c(c1)OCO2)Cc1ccc(Cl)cc1` reads 3.91%; that for `C/C(N)=C(/C#N)C(=O)COC(=O)c1ccccc1O`, 4.99%; that for `CN1CCOc2cc(S(=O)(=O)Nc3ccc(F)cc3)ccc21`, 6.06%.
As for `O=C(Nc1ccccc1)c1ccc(NCCc2ccccc2)c([N+](=O)[O-])c1`, the “hERG current change (%, negative = inhibition) at 1uM” value is listed as 14.6%.
With `Cc1cccc(-c2nc(CNC(=O)c3ccco3)cs2)c1`, the “hERG current change (%, negative = inhibition) at 1uM” value is on record as -4.2%.
Turning to `COc1ccc(N2CC(C(=O)N[C@@H](C)C(=O)NCCc3ccccc3)CC2=O)cc1` (some centres unmarked), the “hERG current change (%, negative = inhibition) at 1uM” value worked out at 15.4%.
Turning to `CCCN(CCC)S(=O)(=O)c1ccc(NC(=O)COc2ccccc2)cc1`, the “hERG current change (%, negative = inhibition) at 1uM” value was 1.27%.
`COc1ccc(O)c(CN2CCC(n3nccc3NC(=O)CCOc3ccccc3)CC2)c1`: the “hERG current change (%, negative = inhibition) at 1uM” value is -23.8%.
`COc1ccc(-n2c(SCC(=O)Nc3ccc(C(=O)O)cc3)nnc2-c2cccs2)cc1`: the “hERG current change (%, negative = inhibition) at 1uM” value turned out to be 12.8%.
For `Cc1ccccc1C(=O)Nc1ccc(N2CCCCCC2)cc1`, the “hERG current change (%, negative = inhibition) at 1uM” value is 15.9%.
Turning to `COc1ccc2c(c1)C(NC(=O)C(F)(F)F)CC2=O` (centres unmarked), the “hERG current change (%, negative = inhibition) at 1uM” value is reported as 7.68%.
Regarding `CCOc1ccc(NC(=O)C(c2ccccn2)N(C(=O)CCl)c2ccc(F)cc2)cc1` (centres unmarked), the “hERG current change (%, negative = inhibition) at 1uM” value worked out at 9.58%.
The result for `CN1CCN(c2ccc(S(=O)(=O)N3CCOCC3)cc2)CC1` reads 15.8%.
Consider `CC(=O)Nc1nonc1C(=O)N1CCC(C)CC1`, for which the “hERG current change (%, negative = inhibition) at 1uM” value is -1.17%.
The result for `Cc1ccc(N(C(=O)c2csnn2)C(C(=O)NC2CCCCC2)c2ccccn2)c(C)c1` (centres unmarked) reads 9.9%; that for `Cc1ccc(NC(=O)CN2C(=O)N/C(=C\c3cccnc3)C2=O)cc1`, 0.0136%.
Regarding `CN(C)S(=O)(=O)N(CC(=O)Nc1ccccc1)c1ccccc1`, the “hERG current change (%, negative = inhibition) at 1uM” value is -0.556%.
Take `Cc1ccc2[nH]c3c(=O)n(CCCN4CCN(C)CC4)cnc3c2c1`: the “hERG current change (%, negative = inhibition) at 1uM” value was -12.6%.
The result for `Cc1ccc(CN2CC[C@H]3C=CCc4cccc(c43)C2)cc1` reads 2.13%; that for `N#Cc1nc(COc2ccc(Br)cc2)oc1NCCN1CCOCC1`, -14.2%.
As to `CC(=O)NC12CC3CC(C1)CC(C(=O)N1CCN(S(=O)(=O)c4cccc(C(F)(F)F)c4)CC1)(C3)C2`, the “hERG current change (%, negative = inhibition) at 1uM” value was found to be 13.8%.
For `CN1CCN(NC(=O)CN2C(=O)/C(=C/c3c(Cl)cccc3Cl)SC2=S)CC1`, the “hERG current change (%, negative = inhibition) at 1uM” value is on record as 3.52%.
Consider `O=C(NCc1ccc(-c2nc3ccccc3s2)cc1)c1cc2ccccc2o1`, for which the “hERG current change (%, negative = inhibition) at 1uM” value was found to be 7.37%.
Consider `CC(/C=N/NC(=O)Cc1cccn1C)=C\c1ccco1`, for which the “hERG current change (%, negative = inhibition) at 1uM” value is given as -4.12%.
`COc1cccc2cc(C(=O)C3=C(O)C(=O)N(Cc4ccco4)C3c3cccnc3)oc12` (centres unmarked): the “hERG current change (%, negative = inhibition) at 1uM” value is -5.76%.
The result for `Cc1cccc(C(=O)NCCCn2ccnc2)c1C` reads 4.84%.
On to `Cc1ccc2c3c(c(SCC(=O)Nc4nonc4C)nc2c1)CCCC3`, for which the “hERG current change (%, negative = inhibition) at 1uM” value turned out to be 13.6%.
Regarding `Cc1ccc(SC(C)C(=O)Nc2ncn[nH]2)cc1` (centres unmarked), the “hERG current change (%, negative = inhibition) at 1uM” value is -0.0544%.
For the compound `COc1ccc(C(=O)NCC(c2ccc3c(c2)OCO3)N2CCN(c3ccc(OC)cc3)CC2)cc1` (centres unmarked), the “hERG current change (%, negative = inhibition) at 1uM” value is -7.95%.
Regarding `C[C@H]1C=C(C(=O)NCc2nc3ccccc3[nH]2)O[C@@H](OCc2ccc(CO)cc2)C1`, the “hERG current change (%, negative = inhibition) at 1uM” value worked out at 2.38%.
As for `CC(=O)c1c(C)[nH]c(C(=O)N2CCCCCC2)c1C`, the “hERG current change (%, negative = inhibition) at 1uM” value is -1.4%.
Regarding `C=CCn1c(C(C)NC(=O)c2ccccc2C)n[nH]c1=S` (centres unmarked), the “hERG current change (%, negative = inhibition) at 1uM” value is reported as 11.5%.
On to `CCOc1ccc(-n2ccc(=O)c(C(=O)Nc3ccc(S(=O)(=O)N4CCOCC4)cc3)n2)cc1`, for which the “hERG current change (%, negative = inhibition) at 1uM” value was determined as 12.1%.
The result for `CCc1nnc(NC2=NCCC2)s1` reads 7.88%; that for `O=C1c2ccc([N+](=O)[O-])cc2NC(c2ccco2)N1/N=C/c1ccco1` (centres unmarked), 11.2%; that for `COc1cccc(/C=N/NC(=O)c2cccc([N+](=O)[O-])c2)c1OS(=O)(=O)c1ccc(C)cc1`, 5.84%.
Consider `O=C(O)CNC1=NCCCCC1`, for which the “hERG current change (%, negative = inhibition) at 1uM” value turned out to be 3.16%.
Turning to `Cc1ccc(C)c(SCc2noc(C(=O)NCC3CCCO3)c2C(=O)O)c1` (centres unmarked), the “hERG current change (%, negative = inhibition) at 1uM” value is reported as 13%.
As to `COc1ccc(C(=O)n2cnc(N)n2)cc1`, the “hERG current change (%, negative = inhibition) at 1uM” value is recorded as 11.4%.
On to `COc1ccc(C(=O)NC(C)CCc2ccccc2)c(OC)c1` (centres unmarked), for which the “hERG current change (%, negative = inhibition) at 1uM” value is -3.35%.
In the case of `CN(Cc1cccc(Cl)c1)C(=O)C1CCN(C(=O)Nc2ccccc2)CC1`, the “hERG current change (%, negative = inhibition) at 1uM” value is -8.1%.
As to `COC(=O)c1c(O)cc(=O)n2c1CCCCC2`, the “hERG current change (%, negative = inhibition) at 1uM” value was 14.1%.
For `Cc1c(Br)c(O)c(Br)c(O)c1/C=N/n1c(-c2ccccc2)n[nH]c1=S`, the “hERG current change (%, negative = inhibition) at 1uM” value came out at 16.2%.
With `COc1cc(/C=C2\SC(c3ccc(C)cc3)=NC2=O)cc(OC)c1OC`, the “hERG current change (%, negative = inhibition) at 1uM” value is 11.2%.
Consider `CC(=O)Nc1ccc(S(=O)(=O)NC(CC(=O)O)c2ccc(OC(C)C)cc2)cc1` (centres unmarked), for which the “hERG current change (%, negative = inhibition) at 1uM” value turned out to be 10.6%.
Regarding `COc1cc(OC)c2c(=O)c(OC)c(-c3ccc(OC)c(OC)c3)oc2c1`, the “hERG current change (%, negative = inhibition) at 1uM” value stood at 11.6%.
Turning to `C=CCn1c(=NC(=O)CN2C(=O)CCC2=O)sc2cc(S(N)(=O)=O)ccc21`, the “hERG current change (%, negative = inhibition) at 1uM” value is recorded as 18.5%.
As to `CCCC(=O)NC(Oc1ccc(Cl)cc1Cl)C(Cl)(Cl)Cl` (centres unmarked), the “hERG current change (%, negative = inhibition) at 1uM” value turned out to be 20.4%.
With `COc1ccc(C)cc1-n1nnnc1SCC(=O)NC1CC1`, the “hERG current change (%, negative = inhibition) at 1uM” value worked out at 11.3%.
In the case of `O=C(CN(c1ccc(Cl)cc1)S(=O)(=O)c1ccc(Cl)c([N+](=O)[O-])c1)NCCc1ccccc1`, the “hERG current change (%, negative = inhibition) at 1uM” value came out at 10.9%.
The result for `O=C(Nc1ccc2c(c1)C(=O)NC2=O)c1cccc(C(F)(F)F)c1` reads 17%.
For the compound `O=C(CN1C(=O)C(=O)N(Cc2ccccc2)C1=O)Nc1cc(Cl)cc(Cl)c1`, the “hERG current change (%, negative = inhibition) at 1uM” value is 6.12%.
The result for `O=C(CNS(=O)(=O)c1ccc(F)cc1)N1CCCCCC1` reads 14.6%.

Values taken from paper PMC4336329 (PLoS ONE, 2015).
